Measurements from the supplement of paper PMC10037445.
Where “and” joins values, the source holds several entries; their conditions need not be identical. Identical values can stand only once. Over roughly 2,900 compounds, “NF-kB SEAP reporter activity, fold change vs agonist alone” has its median near 0.99; the highest 2% begin near 2.6. The list shows a part of the results.

Legend:
RAW-Dual [1] = test: NF-kB SEAP reporter activity, fold change vs agonist alone; cytotoxicity flag (confluency mask): not cytotoxic; higher = enhanced NF-kB activity
Summary of the method: (§1)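 Cytotoxic wells were those whose IncuCyte confluency was below 70% of agonist controls in both mask sets. The cells were RAW-Dual macrophages at 50,000 cells/well in DMEM on 384-well plates, dosed with 50 nL of library stock by pin tool, stimulated with a PRR agonist 1 h later, and kept at 37 °C, 5% CO2 for 20 hours. IRF and NF-κB reporter activity, as fold change over agonist-alone wells, came from supernatant read by QuantiLuc luminescence and QuantiBlue absorbance, respectively.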

RAW-Dual [2] = test: NF-kB SEAP reporter activity, fold change vs agonist alone; higher = enhanced NF-kB activity
Summary of the method: as §1

RAW-Dual [3] = test: NF-kB SEAP reporter activity, fold change vs agonist alone; cytotoxicity flag (confluency mask): cytotoxic (confluency <70% of control); higher = enhanced NF-kB activity
Summary of the method: as §1

[4] = agonist: ODN 1826 (TLR9) 0.5 ug/mL
[5] = agonist: Pam2CSK4 (TLR2/6) 0.1 ug/mL
[6] = agonist: Pam3CSK4 (TLR2/1) 0.1 ug/mL
[7] = library stock concentration (final ~1000-fold dilution): 10 mM, cytotoxicity flag (confluency mask): not cytotoxic, agonist: Imiquimod (TLR7) […]
[8] = library stock concentration (final ~1000-fold dilution): 10 mM, cytotoxicity flag (confluency mask): not cytotoxic, agonist: MPLA (TLR4) […]
[9] = library stock concentration (final ~1000-fold dilution): 10 mM, cytotoxicity flag (confluency mask): cytotoxic (confluency <70% of control), agonist: Imiquimod (TLR7) […]
[10] = library stock concentration (final ~1000-fold dilution): 10 mM, cytotoxicity flag (confluency mask): cytotoxic (confluency <70% of control), agonist: MPLA (TLR4) […]

COc1cc2ncnc(Nc3cc(Br)c(O)c(Br)c3)c2cc1OC (library stock concentration (final ~1000-fold dilution): 10 mM)
NF-kB SEAP reporter activity (RAW-Dual [1]; agonist: LPS (TLR4) 0.1 ug/mL): 2.14
NF-kB SEAP reporter activity (RAW-Dual [1]; [4]): 0.951
NF-kB SEAP reporter activity (RAW-Dual [1]; [5]): 0.984
NF-kB SEAP reporter activity (RAW-Dual [1]; [6]): 0.757

COc1cc2ncnc(Nc3cc(Br)c(O)c(Br)c3)c2cc1OC
NF-kB SEAP reporter activity (RAW-Dual [2]; [7]): 0.787
NF-kB SEAP reporter activity (RAW-Dual [2]; [8]): 1.53

O=S(=O)(N=Cc1c(O)ccc2ccccc12)c1cccs1
NF-kB SEAP reporter activity (RAW-Dual [2]; [7]): 0.768
NF-kB SEAP reporter activity (RAW-Dual [2]; [8]): 1.03

O=S(=O)(N=Cc1c(O)ccc2ccccc12)c1cccs1 (library stock concentration (final ~1000-fold dilution): 10 mM)
NF-kB SEAP reporter activity (RAW-Dual [1]; agonist: LPS (TLR4) 0.1 ug/mL): 1.28
NF-kB SEAP reporter activity (RAW-Dual [1]; [4]): 0.662
NF-kB SEAP reporter activity (RAW-Dual [1]; [5]): 1.04
NF-kB SEAP reporter activity (RAW-Dual [1]; [6]): 0.853

Fc1ccc(CNc2ncnc3ccc(F)cc23)cc1 (library stock concentration (final ~1000-fold dilution): 10 mM)
NF-kB SEAP reporter activity (RAW-Dual [1]; agonist: LPS (TLR4) 0.1 ug/mL): 2.47
NF-kB SEAP reporter activity (RAW-Dual [1]; [4]): 1.19
NF-kB SEAP reporter activity (RAW-Dual [1]; [5]): 1.06
NF-kB SEAP reporter activity (RAW-Dual [1]; [6]): 1.25

Fc1ccc(CNc2ncnc3ccc(F)cc23)cc1
NF-kB SEAP reporter activity (RAW-Dual [2]; [7]): 0.988
NF-kB SEAP reporter activity (RAW-Dual [2]; [8]): 1.47

CS(=O)(=O)O.Cc1ccc(NC(=O)c2ccc(CN3CCN(C)CC3)cc2)cc1Nc1nccc(-c2cccnc2)n1 (library stock concentration (final ~1000-fold dilution): 10 mM)
NF-kB SEAP reporter activity (RAW-Dual [3]; agonist: LPS (TLR4) 0.1 ug/mL): 1.29
NF-kB SEAP reporter activity (RAW-Dual [3]; [4]): 0.201
NF-kB SEAP reporter activity (RAW-Dual [3]; [5]): 1.13
NF-kB SEAP reporter activity (RAW-Dual [3]; [6]): 1.25

CS(=O)(=O)O.Cc1ccc(NC(=O)c2ccc(CN3CCN(C)CC3)cc2)cc1Nc1nccc(-c2cccnc2)n1
NF-kB SEAP reporter activity (RAW-Dual [2]; [9]): 1.24
NF-kB SEAP reporter activity (RAW-Dual [2]; [10]): 1.46

CCCC(CCC)C(=O)O (library stock concentration (final ~1000-fold dilution): 10 mM)
NF-kB SEAP reporter activity (RAW-Dual [1]; agonist: LPS (TLR4) 0.1 ug/mL): 1.3 and 1.11
NF-kB SEAP reporter activity (RAW-Dual [1]; [4]): 0.895 and 1.15 and 1.02
NF-kB SEAP reporter activity (RAW-Dual [1]; [5]): 0.949 and 1.22 and 1.02
NF-kB SEAP reporter activity (RAW-Dual [1]; [6]): 1.25 and 1.32 and 1.08

CC12CCC(O)CC1=CCC1C2CCC2(C)C(C(O)CC(O)(C(F)(F)F)C(F)(F)F)CCC12 (configuration not stated)
NF-kB SEAP reporter activity (RAW-Dual [2]; [7]): 0.815
NF-kB SEAP reporter activity (RAW-Dual [2]; [8]): 0.786

CC12CCC(O)CC1=CCC1C2CCC2(C)C(C(O)CC(O)(C(F)(F)F)C(F)(F)F)CCC12 (configuration not stated) (library stock concentration (final ~1000-fold dilution): 10 mM)
NF-kB SEAP reporter activity (RAW-Dual [1]; agonist: LPS (TLR4) 0.1 ug/mL): 0.54
NF-kB SEAP reporter activity (RAW-Dual [1]; [4]): 0.663
NF-kB SEAP reporter activity (RAW-Dual [1]; [5]): 0.739
NF-kB SEAP reporter activity (RAW-Dual [1]; [6]): 0.489

Nc1ccn(C2OC(CO)C(O)C2(F)F)c(=O)n1 (configuration not stated) (library stock concentration (final ~1000-fold dilution): 10 mM)
NF-kB SEAP reporter activity (RAW-Dual [3]; agonist: LPS (TLR4) 0.1 ug/mL): 0.91
NF-kB SEAP reporter activity (RAW-Dual [3]; [4]): 1.88
NF-kB SEAP reporter activity (RAW-Dual [3]; [5]): 1.18
NF-kB SEAP reporter activity (RAW-Dual [3]; [6]): 1.05

Nc1ccn(C2OC(CO)C(O)C2(F)F)c(=O)n1 (configuration not stated)
NF-kB SEAP reporter activity (RAW-Dual [2]; [9]): 2.14
NF-kB SEAP reporter activity (RAW-Dual [2]; [10]): 1.35

CC(O)C(=O)O.CN1CCN(c2ccc3nc(-c4c(N)c5c(F)cccc5[nH]c4=O)[nH]c3c2)CC1
NF-kB SEAP reporter activity (RAW-Dual [2]; [9]): 0.335
NF-kB SEAP reporter activity (RAW-Dual [2]; [10]): 0.591

CC(O)C(=O)O.CN1CCN(c2ccc3nc(-c4c(N)c5c(F)cccc5[nH]c4=O)[nH]c3c2)CC1 (library stock concentration (final ~1000-fold dilution): 10 mM)
NF-kB SEAP reporter activity (RAW-Dual [3]; agonist: LPS (TLR4) 0.1 ug/mL): 0.341
NF-kB SEAP reporter activity (RAW-Dual [3]; [4]): 0.18
NF-kB SEAP reporter activity (RAW-Dual [3]; [5]): 0.15
NF-kB SEAP reporter activity (RAW-Dual [3]; [6]): 0.219

O=C(NC1CCNCC1)c1n[nH]cc1NC(=O)c1c(Cl)cccc1Cl (library stock concentration (final ~1000-fold dilution): 10 mM)
NF-kB SEAP reporter activity (RAW-Dual [3]; agonist: LPS (TLR4) 0.1 ug/mL): 1.14
NF-kB SEAP reporter activity (RAW-Dual [3]; [4]): 2.38
NF-kB SEAP reporter activity (RAW-Dual [3]; [5]): 0.837
NF-kB SEAP reporter activity (RAW-Dual [3]; [6]): 1.37

O=C(NC1CCNCC1)c1n[nH]cc1NC(=O)c1c(Cl)cccc1Cl
NF-kB SEAP reporter activity (RAW-Dual [2]; [9]): 2.4
NF-kB SEAP reporter activity (RAW-Dual [2]; [10]): 1.28

O=CN1CC/C(=C/c2ccc3c(c2)OCO3)C1=O
NF-kB SEAP reporter activity (RAW-Dual [2]; [7]): 1.03
NF-kB SEAP reporter activity (RAW-Dual [2]; [8]): 1.09

O=CN1CC/C(=C/c2ccc3c(c2)OCO3)C1=O (library stock concentration (final ~1000-fold dilution): 10 mM)
NF-kB SEAP reporter activity (RAW-Dual [1]; agonist: LPS (TLR4) 0.1 ug/mL): 1.17
NF-kB SEAP reporter activity (RAW-Dual [1]; [4]): 0.856
NF-kB SEAP reporter activity (RAW-Dual [1]; [5]): 1.31
NF-kB SEAP reporter activity (RAW-Dual [1]; [6]): 1.37

CCCCC1=NC2(CCCC2)C(=O)N1Cc1ccc(-c2ccccc2-c2nn[nH]n2)cc1 (library stock concentration (final ~1000-fold dilution): 2 mM)
NF-kB SEAP reporter activity (RAW-Dual [1]; agonist: LPS (TLR4) 0.1 ug/mL): 1.22
NF-kB SEAP reporter activity (RAW-Dual [1]; [4]): 1
NF-kB SEAP reporter activity (RAW-Dual [1]; [5]): 1.06
NF-kB SEAP reporter activity (RAW-Dual [1]; [6]): 1.12

CCCCC1=NC2(CCCC2)C(=O)N1Cc1ccc(-c2ccccc2-c2nn[nH]n2)cc1
NF-kB SEAP reporter activity (RAW-Dual [2]; library stock concentration (final ~1000-fold dilution): 2 mM, cytotoxicity flag (confluency mask): not cytotoxic, agonist: Imiquimod (TLR7) […]): 1.01
NF-kB SEAP reporter activity (RAW-Dual [2]; library stock concentration (final ~1000-fold dilution): 2 mM, cytotoxicity flag (confluency mask): not cytotoxic, agonist: MPLA (TLR4) […]): 1.05

COc1ccc(-c2coc3cc(O)cc(O)c3c2=O)cc1
NF-kB SEAP reporter activity (RAW-Dual [2]; [7]): 1.36
NF-kB SEAP reporter activity (RAW-Dual [2]; [8]): 1.15

COc1ccc(-c2coc3cc(O)cc(O)c3c2=O)cc1 (library stock concentration (final ~1000-fold dilution): 10 mM)
NF-kB SEAP reporter activity (RAW-Dual [1]; agonist: LPS (TLR4) 0.1 ug/mL): 1.17
NF-kB SEAP reporter activity (RAW-Dual [1]; [4]): 1.32
NF-kB SEAP reporter activity (RAW-Dual [1]; [5]): 1.14
NF-kB SEAP reporter activity (RAW-Dual [1]; [6]): 1.21

CC(C)(C)c1cc(/C=C(\C#N)C(N)=S)cc(C(C)(C)C)c1O (library stock concentration (final ~1000-fold dilution): 10 mM)
NF-kB SEAP reporter activity (RAW-Dual [3]; agonist: LPS (TLR4) 0.1 ug/mL): 1.9
NF-kB SEAP reporter activity (RAW-Dual [3]; [4]): 0.73
NF-kB SEAP reporter activity (RAW-Dual [3]; [5]): 0.297
NF-kB SEAP reporter activity (RAW-Dual [3]; [6]): 0.648

CC(C)(C)c1cc(/C=C(\C#N)C(N)=S)cc(C(C)(C)C)c1O
NF-kB SEAP reporter activity (RAW-Dual [2]; [9]): 2
NF-kB SEAP reporter activity (RAW-Dual [2]; [10]): 1.94

CCCCS(=O)(=O)NC(Cc1ccc(OCCCCC2CCNCC2)cc1)C(=O)O.Cl.O (configuration not stated)
NF-kB SEAP reporter activity (RAW-Dual [2]; [7]): 0.94
NF-kB SEAP reporter activity (RAW-Dual [2]; [8]): 1.02

CCCCS(=O)(=O)NC(Cc1ccc(OCCCCC2CCNCC2)cc1)C(=O)O.Cl.O (configuration not stated) (library stock concentration (final ~1000-fold dilution): 10 mM)
NF-kB SEAP reporter activity (RAW-Dual [1]; agonist: LPS (TLR4) 0.1 ug/mL): 1.18
NF-kB SEAP reporter activity (RAW-Dual [1]; [4]): 1.01
NF-kB SEAP reporter activity (RAW-Dual [1]; [5]): 0.988
NF-kB SEAP reporter activity (RAW-Dual [1]; [6]): 1.24
